# Data from PubChem BioAssay AID624418 (National Center for Advancing Translational Sciences (NCATS), 2012).
# Screen size: about 410,000 compounds; about 530 (0.13%) were called active. This list was built around the results that the source calls inconclusive (neither active nor inactive); the mix of calls is not that of the screen. Calls come from the whole dose curve; as a rule, active = well fitted inhibition curve with a large enough effect; inconclusive = small, poorly fitted or top-dose-only effect, or another doubt; inactive = no such curve, though single readings can be large or run the other way. A potency beside an inconclusive call is a rough fit, not a confirmed value.
# Test: qHTS of GLP-1 Receptor Inverse Agonists: Cytotox Screen
# Conditions: HEK293 cAMP-luciferase reporter cells, luminescence, 24 h; activity change, negative = inhibition: at 38.3 µM (top of the series) unless noted
# Outline: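 Quantitative HTS format, 1536 wells, 200 cells/uL seeded. Compounds: 23 nL, 24 h, 37 °C. Detection: luciferase reagent, luminescence at 12 min RT; decreased signal taken as cytotoxic.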
# % is set by controls: 0 for no effect and ±100 for the full control effect; potency is the fitted concentration of half-maximal effect.
SMILES,"activity change, negative = inhibition",Potency
CC(=O)[C@H]1[C@@H]2C(=O)N(c3cccc(Cl)c3)C(=O)[C@@H]2[C@H]2c3ccccc3C=CN21,inactive: 29.4%,
CCn1c(SCC(=O)Nc2nc(-c3ccc(C)cc3)cs2)nnc1-c1ccccc1O,,"inconclusive: 14.1 µM [inhibitor, single point]"
COc1cccc(/C=N/NC(=O)CC(=O)NCCc2ccc(OC)c(OC)c2)c1,,"inconclusive: 14.1 µM [inhibitor, partial curve, poor fit]"
CN1CCN(C2=Cc3ccccc3Sc3cc(F)c(F)cc32)CC1,,"inconclusive: 10 µM [inhibitor, partial curve, poor fit]"
CC(/C=N/NC(=O)c1cc(C(C)(C)C)[nH]n1)=C\c1ccccc1,,"inconclusive: 10 µM [inhibitor, partial curve, poor fit]"
O=C(c1ccccc1CCc1ccccc1)N1CCCC1,inactive: 15%,
CC(=O)N(C1CC(C)C(C#N)(C#N)C1(C#N)C#N)N(C)C (stereo not given),,"inconclusive: 28.2 µM [inhibitor, single point]"
CN(C)CCN(C)Cc1c2ccccc2c(CN(C)CCN(C)C)c2ccccc12,inconclusive: -74.1% [inhibitor],
C/C(=N\NC(=O)C1CC1)c1ccc(Cl)c(Cl)c1,inactive: 12%,
Cc1cc(C)n2nc(N)c(N=Nc3ccccc3)c2n1,,active: 10 µM
CCOc1cccc2sc(N(CCCN(C)C)C(=O)c3ccc(C(=O)c4ccccc4)cc3)nc12,,"inconclusive: 11.2 µM [inhibitor, partial curve]"
COc1ccc(OCCNC(=O)C2(C)CCN2Cc2ccc3ccccc3c2)cc1 (stereo not given),inactive: 0.192%,
COCCNC(=O)C(c1ccc(C)o1)N(C(=O)c1snc(C(N)=O)c1N)c1cccc(C)c1 (stereo not given),inactive: 7.1%,
O=C(CSc1nnc(-c2ccccc2)c(-c2ccccc2)n1)NCc1ccco1,,"inconclusive: 11.2 µM [inhibitor, single point]"
COc1ccc(C(=O)NC(=S)NCc2ccccc2)cc1,,"inconclusive: 22.4 µM [inhibitor, single point]"
Cc1ccc(S(=O)(=O)C2(C(=O)Nc3cccnc3)CC2)cc1,inactive: 1.46%,
O=C(Cc1ccc(Cl)cc1)Nc1ccc(-c2nnc(-c3ccco3)o2)cc1,,"inconclusive: 10 µM [inhibitor, partial curve]"
CCCCOc1ccc(CSC2=NCCN2)cc1[N+](=O)[O-],,"inconclusive: 28.2 µM [inhibitor, single point]"
C=CCn1c(SCC(=O)/C(C#N)=C(\C)N)nc2sc(CC)cc2c1=O,,"inconclusive: 12.6 µM [inhibitor, partial curve, poor fit]"
COCCCNC(=O)CCc1nnc2ccc(N3CCC(C)CC3)nn12,inactive: -15.4%,
COC(=O)c1ccc(NC(=S)NCCc2ccccc2C)cc1,,"inconclusive: 31.6 µM [inhibitor, single point]"
COc1cc(/C=C2\C(=O)ON=C2c2ccc(Cl)cc2)ccc1O,,"inconclusive: 31.6 µM [inhibitor, single point]"
COc1ccc(C(C)(O)c2nc(-c3ccccc3C)cs2)cc1 (stereo not given),,"inconclusive: 7.94 µM [inhibitor, partial curve, poor fit]"
NC(=O)CC(NC(=O)Cc1ccc(Br)cc1)c1ccc(NCc2ccc(F)c(F)c2)c([N+](=O)[O-])c1 (stereo not given),,"inconclusive: 22.4 µM [inhibitor, single point]"

SMILES,"activity change, negative = inhibition",Potency
OC(c1ccc2ccccc2c1)c1ncc(-c2ccc(C(F)(F)F)cc2)[nH]1 (stereo not given),inactive: -22.4%,
COc1cc2c(cc1OC)n(CC(=O)c1ccc(C)cc1)c(=O)n1nc(CCn3nc(C)cc3C)nc21,inactive: -5.91%,
CCN(CC)CCN(C(=O)CCS(=O)(=O)c1ccccc1)c1nc2cc(C)cc(C)c2s1,,"inconclusive: 28.2 µM [inhibitor, single point]"
Cc1cccc(NS(=O)(=O)c2cccc(C(=O)NCC(c3ccco3)N3CCCCC3)c2)c1 (stereo not given),,"inconclusive: 15.8 µM [inhibitor, single point]"
CCOc1ncccc1C(=O)Nc1cccc(C(=O)Nc2cccc(S(=O)(=O)CCO)c2)c1,,"inconclusive: 20 µM [inhibitor, single point]"
CCOc1ccc(/C=N/n2c(C3CCCCC3)n[nH]c2=S)cc1,inactive: -0.778%,
OCCN1CCN(Cc2cc(Cl)c3cccnc3c2O)CC1,,"inconclusive: 1.41 µM [inhibitor, partial curve, poor fit]"
OC1CCN(c2c3c(nc4cc(-c5ccc(Cl)cc5)nn24)CCC3)CC1,inactive: -8.66%,
C/C(CC(C)C)=N\Nc1ccc(S(N)(=O)=O)cc1[N+](=O)[O-],,"inconclusive: 31.6 µM [inhibitor, single point]"
Cc1ccc(S(=O)(=O)N2C[C@H]3C(=O)C[C@@H](c4ccccc4)N(S(=O)(=O)c4ccc(Br)cc4)[C@H]3C[C@H]2c2ccccc2)cc1,inactive: 1.52%,
O=c1c2cc(Cl)ccc2[nH]c(=S)n1Cc1ccccn1,,"inconclusive: 12.6 µM [inhibitor, single point]"
COc1ccccc1N1CCN(C(=O)C(Sc2ccccc2)c2ccccc2)CC1 (stereo not given),,"inconclusive: 5.62 µM [inhibitor, partial curve, poor fit]"
CC(C)NC(=O)COc1coc(CN2CCN(c3ccccc3F)CC2)cc1=O,inactive: -14.7%,
Fc1ccc(-c2csc(NC(=S)Nc3ccccc3)n2)cc1,,"inconclusive: 4.47 µM [inhibitor, full curve]"
Cn1c(SCC(=O)NCC2CCCO2)nc2c(c1=O)SCC2 (stereo not given),inactive: -6.6%,
COc1ccc(CNC(=O)C2CCN(S(=O)(=O)c3ccc4c(ccn4C)c3)CC2)cc1,inactive: 0.412%,
COc1cccc(-c2ccc(C#N)c(OC(=O)c3c(Cl)cccc3Cl)n2)c1,inactive: -2.51%,
Cc1ccc(C(=O)NN2C(=O)/C(=C/c3cccn3C)SC2=S)cc1,,"inconclusive: 11.2 µM [inhibitor, single point]"
Cc1ccc(S(=O)(=O)NCC(c2ccc3c(c2)OCO3)N2CCOCC2)cc1 (stereo not given),inactive: 3.89%,
COc1cc(/C=N/NC(N)=S)ccc1OCc1ccc(C)cc1,,active: 12.6 µM
Cc1ccc(-c2nc(CNC(=O)NC3CCCCC3)c(C)o2)cc1,inactive: -4.21%,
COc1ccc(C23CC4CC(CC(C4)C2)C3)cc1C(=O)NCCN(C)C,,"inconclusive: 14.1 µM [inhibitor, single point]"
S=C(Nc1cccc(Cl)c1)N(CCCN1CCCC1)Cc1cccn1Cc1ccc(Cl)cc1,,"inconclusive: 11.2 µM [inhibitor, single point]"
COc1cc(OC)c(NC(=O)C(C)n2nc(-c3ccc(C)cc3)c3c(c2=O)CCCC3)cc1Cl (stereo not given),inactive: -18.5%,

SMILES,"activity change, negative = inhibition",Potency
COc1ccccc1-c1cc(C(=O)N/N=C/c2ccc(C)s2)c2ccccc2n1,inactive: -3.65%,
CNc1cncc(-c2cc(C)c(O)c(C)c2)n1,,"inconclusive: 5.01 µM [inhibitor, partial curve]"
O=C(CSc1ccccn1)Nc1nonc1[N+](=O)[O-],,"inconclusive: 11.2 µM [inhibitor, single point]"
COc1ccc(CNC(=O)CSCc2ccccc2Cl)cc1,inactive: 12.2%,
c1ccc(CNc2nc(NCC3CC3)nc3cc(-c4ccccc4)sc23)cc1,,"inconclusive: 28.2 µM [inhibitor, single point]"
CCOC(=O)N1CCC(N2CCCC(C(=O)c3ccc4cc(OC)ccc4c3)C2)CC1 (stereo not given),,"inconclusive: 10 µM [inhibitor, partial curve, poor fit]"
S=C(NCCSCc1ccc(Cl)cc1Cl)Nc1ccccc1,inactive: -8.05%,
CC(=O)N1CCc2cc(S(=O)(=O)NC(Cc3ccccc3)C(=O)O)ccc21 (stereo not given),inactive: -3.23%,
CCC1CCc2sc(C(=O)NC3CCN(Cc4ccccc4)CC3)cc2C1 (stereo not given),,"inconclusive: 11.2 µM [inhibitor, single point]"
CCc1nc2c(OCCOC)cccn2c1N(C)C(=O)c1ccc(C)cc1,inactive: -2.87%,
CCOC(=O)c1sc(-c2ccc(F)cc2)cc1N,inactive: 1.93%,
Cc1ccc(/C=C2\C(=N)N3N=C(CC(=O)N4CCOCC4)SC3=NC2=O)o1,,"inconclusive: 10 µM [inhibitor, partial curve, poor fit]"
Cc1cc(-c2ccccc2)nc(N/N=C/c2ccco2)n1,,"inconclusive: 12.6 µM [inhibitor, single point]"
Cc1cc(O)c(-c2n[nH]c3c2C(c2cccc(O)c2)N(Cc2cccnc2)C3=O)cc1Cl (stereo not given),,"inconclusive: 11.2 µM [inhibitor, single point]"
CCCOCc1cc(CN2CCN(c3ccccc3OC)CC2)c(O)c2ncccc12,,"inconclusive: 11.2 µM [inhibitor, partial curve]"
COc1ccccc1Nc1nc(-c2ccc3c(c2)NC(=O)CO3)cs1,,"inconclusive: 11.2 µM [inhibitor, partial curve]"
N#CC(C#N)=C1SC(=Nc2ccccc2)C(=Nc2ccccc2)N1c1ccccc1,,"inconclusive: 2.82 µM [inhibitor, partial curve, poor fit]"
CCN(CC)CCC(=O)N1C/C(=C/c2ccccc2)C(=O)/C(=C\c2ccccc2)C1,,"inconclusive: 12.6 µM [inhibitor, partial curve, poor fit]"
O=C(N/N=C/c1ccc([N+](=O)[O-])s1)c1ccccc1Br,,"inconclusive: 31.6 µM [inhibitor, single point]"
CC1Cc2nc(SCC(=O)Nc3ccc4c(c3)OCCO4)n(C)c(=O)c2S1 (stereo not given),,"inconclusive: 0.501 µM [inhibitor, full curve, poor fit]"
Cc1nc2ccccc2c2oc(C(=O)NCCCN3CC(C)CC(C)C3)cc12 (stereo not given),,"inconclusive: 22.4 µM [inhibitor, single point]"
CCOC(=O)/C=C/S(=O)(=O)c1ccc(NC(C)=O)cc1,,"inconclusive: 7.94 µM [inhibitor, partial curve, poor fit]"
